# From PubChem BioAssay AID686970 (National Center for Advancing Translational Sciences (NCATS), 2013)
# The campaign covered roughly 360,000 compounds. About 6,000 (1.7%) were called active. This list was built around the results that the source calls inconclusive (neither active nor inactive); the mix of calls is not that of the screen. Calls come from the whole dose curve; as a rule, active = well fitted cell-killing curve with a large enough effect; inconclusive = small, poorly fitted or top-dose-only effect, or effect the other way; inactive = flat fitted curve, though single readings scatter. No potency is given beside an inconclusive call; the fits are too rough.
# Assay: qHTS for induction of synthetic lethality in tumor cells producing 2HG: qHTS for the HT-1080-NT fibrosarcoma cell line;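 note: NT is the 2HG producing partner of a matched IDH1 knockdown line; nearly all actives have a fitted effect of over 55% in size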
# Details: HT-1080-NT fibrosarcoma viability, CellTiter-Glo ATP luminescence, 48 h; series mostly up to 46.1 µM
# Outline: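 Read-out is CellTiter-Glo luminescence after 10 minutes at room temperature, following 48 hours' compound treatment of HT-1080-NT cells (750 cells/well, RPMI, 5% FBS, 37 degrees C).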
# Potency is the fitted concentration of half-maximal effect; tags give direction and shape of the fitted curve.
row,SMILES,Potency
1,COc1cc2c(cc1NC(=O)CSc1nnc(Cc3cccs3)n1Cc1ccco1)oc1ccccc12,"inconclusive [cytotoxic, single point]"
2,CCOC(=O)N1CCN(C(=O)CSCC(=O)Nc2nc(-c3ccc(-c4ccccc4)cc3)cs2)CC1,"inconclusive [cytotoxic, partial curve]"
3,CCOC(=O)C1CCCN(C(=S)NC(=O)/C=C/c2ccc(F)cc2)C1 (stereo unspecified),inactive
4,O=C(O)c1cc(-c2ccc(/C=N/Nc3ccc(Cl)cc3)o2)ccc1Cl,"inconclusive [cytotoxic, partial curve]"
5,Cc1cccc(N2CCN(C3CCCCC3NS(=O)(=O)c3ccccc3)CC2C)c1 (stereo unspecified),"inconclusive [cytotoxic, single point]"
6,CCc1nc(NCC2CCCN2CC)c2nnn(Cc3ccccc3F)c2n1 (stereo unspecified),"inconclusive [cytotoxic, partial curve]"
7,C[C@@H](CSc1ccccc1)CN1CC[C@H](O)CCC1=O,inactive
8,Cc1ccc(CN2C(=O)c3ccccc3C2c2nnnn2C(C)C)cc1 (stereo unspecified),inactive
9,CCn1cc(C(=O)NCCCN(CC(C)C)CC(C)C)c(=O)c2cc(S(=O)(=O)N3CCOCC3)ccc21,inactive
10,Nc1ncc(-c2nnnn2-c2ccc(Cl)cc2)c(-c2ccc(Cl)cc2)n1,active: 6.51 µM
11,Cc1cccc(C2CC(c3ccc(Cl)cc3)Nc3nc(N)nn32)c1 (stereo unspecified),inactive
12,CCCCCCCCCCCCN1C(=O)CSC1c1cccnc1 (stereo unspecified),"inconclusive [cytotoxic, single point]"
13,Cc1ccc([C@@H]2CC=C(C(=O)O)[C@H](c3ccc(C(C)(C)C)cc3)N2S(=O)(=O)c2ccc(C)cc2)cc1,"inconclusive [cytotoxic, single point]"
14,CCOCC(=O)N1CCc2ccccc21,inactive
15,CCc1ccc(NC(=O)CSc2nnnn2C)cc1,inactive
16,CC(=O)Nc1ccc(S(=O)(=O)N2CCSc3ccccc32)cc1,active: 20.6 µM
17,CN(c1cccc(Cl)c1)S(=O)(=O)c1cccc(C(=O)Nc2nc3ccccc3[nH]2)c1,"inconclusive [cytotoxic, single point]"
18,O=C1C=CC(O)(c2cc(=O)c3c(O)cc(O)cc3o2)C=C1,active: 7.31 µM
19,O=C(N/N=C/c1ccccn1)c1cc(-c2ccc(Br)cc2)nc2ccccc12,"inconclusive [cytotoxic, partial curve]"
20,Cc1oc(C(C)(C)C)cc1C(=O)N1CCN(C(c2ccccc2)c2ccccc2)CC1,"inconclusive [cytotoxic, single point]"
21,CNc1ccc(Br)cc(C(=O)/C=C/c2ccc3c(c2)OCO3)c1=O,"inconclusive [cytotoxic, single point]"
22,Cn1cc(-c2coc3c(C(=O)NCc4cccc(Cl)c4)cccc23)cn1,"inconclusive [cytotoxic, single point]"
23,Cc1c(C(=O)NCc2ccc3c(c2)OCO3)oc2ccc(Br)cc12,"inconclusive [cytotoxic, single point]"

row,SMILES,Potency
1,COc1cc(/C=C(\C#N)C(=O)N2CCOCC2)cc(Br)c1O,inactive
2,c1ccc(CSc2nnc(-c3c[nH]c4ccccc34)o2)cc1,"inconclusive [cytotoxic, single point]"
3,C=CCn1c(=O)c(C(=O)Nc2ncccc2O)c(O)c2ccccc21,"inconclusive [cytotoxic, single point]"
4,Clc1ccc(-n2c(SC/C=C/c3ccccc3)nnc2-c2cccnc2)cc1,"inconclusive [cytotoxic, single point]"
5,Cc1cccc(C(CC(=O)NCc2ccco2)c2ccccc2)c1O (stereo unspecified),inactive
6,O=C(CC(=O)NCc1ccccc1)NCc1ccccc1,inactive
7,COc1ccc(CC(=O)Nc2ccc3c(c2)CCC3)cc1OC,inactive
8,COc1ccc(C(C(=O)NC2CCCCC2)N(C(=O)CCl)c2cccc(Cl)c2)cc1 (stereo unspecified),active: 9.2 µM
9,C=CCNC(=O)NC(=O)COC(=O)c1ccccc1Sc1ccc(C(F)(F)F)cc1[N+](=O)[O-],"inconclusive [cytotoxic, single point]"
10,CC(C)(C)CC(C)(C)NC(=O)Nc1cccc([N+](=O)[O-])c1,"inconclusive [cytotoxic, single point]"
11,COc1ccc(Oc2c(Cl)cnn(-c3ccc(Cl)c(Cl)c3)c2=O)cc1,active: 18.4 µM
12,COCCNC(=O)C1CCCN(C(=O)Cc2ccc(F)cc2)CC1 (stereo unspecified),"inconclusive [rising, single point]"
13,COC(=O)c1ccccc1C(=O)N(c1ccccc1)c1ccccc1,inactive
14,CC(C)C[C@H]1COc2cc(N3CCC[C@@H]3CO)ccc2S(=O)(=O)N1,inactive
15,Cc1ccc(S(=O)(=O)/N=C2\C(=O)c3ccccc3C([O-])=C2n2cc[n+](CCC(C)C)c2)cc1,"inconclusive [cytotoxic, partial curve]"
16,CCOc1ccc(/C=N/NC(=O)c2ccc(CSc3nc4ccccc4[nH]3)cc2)cc1,"inconclusive [cytotoxic, single point]"
17,Cc1ccc(S(=O)(=O)N(CC(=O)N2CCCC2)C2CCCCC2)cc1,inactive
18,COCCNC(=S)N1CCC2CC1c1cc(-c3ccc4c(c3)OCO4)ccc12 (stereo unspecified),"inconclusive [cytotoxic, single point]"
19,CCOc1ccc2nc(NC(=O)c3ccc(C)o3)sc2c1,inactive
20,Cc1ccc(C)c(C2NC(=O)c3ccccc3N2)c1 (stereo unspecified),"inconclusive [cytotoxic, full curve]"
21,COc1ccc(C(CNC(=O)c2cc3c(s2)CCC(C)C3)N2CCCC2)cc1 (stereo unspecified),"inconclusive [cytotoxic, single point]"
22,CSc1ccc(Cl)c(C(=O)NCCOc2cc(C(C)C)ccc2C)c1,"inconclusive [cytotoxic, single point]"
23,NNC(=O)CN1C(c2ccccc2)=Nc2ccc(Br)cc2C1c1ccccc1 (stereo unspecified),"inconclusive [cytotoxic, single point]"
